# Test results reported in PubChem BioAssay AID624417 (National Center for Advancing Translational Sciences (NCATS), 2012).
# “And” between values parts separate entries of the source, which are not always exact repeats. Identical values can stand only once. Hit rate of the full screen: of about 410,000 compounds, about 6,400 (1.6%) were called active. This list was built around the results that the source calls inconclusive (neither active nor inactive); the mix of calls is not that of the screen. The call rests on the fitted dose curve; in most records, active means well fitted inhibition curve with a large enough effect; inconclusive means small, poorly fitted or top-dose-only effect; inactive means no such curve, though single readings can be large or run the other way. Potencies of inconclusive entries are doubtful fits and often do not repeat.
# Target: Glucagon-like peptide 1 receptor (Homo sapiens) (UniProt P43220)
# Assay: qHTS of GLP-1 Receptor Inverse Agonists (Inhibition Mode); further: nearly all actives have a fitted effect of over 55% in size
# Details: HEK293 GLP-1R CRE-luciferase, luminescence, 24 h, GLP-1R form is constitutively active; activity change, negative = inhibition: at 38.3 µM (top of the series) unless noted
# Procedure, shortened: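 Cells are plated, allowed 12 hours at 37 deg C, then treated with compounds for 24 hr before luciferase detection reagent is added and luminescence is read after 12 min at room temperature. The HEK293 line carries constitutively active GLP-1R with a cAMP-responsive reporter.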
# On the % scale 0 is the no-effect control and ±100 the full control effect; potency means the concentration at half of the fitted maximal effect; tags describe the fitted curve by direction and shape.
# Sequence of UniProt P43220 (P43220 whole entry, looked up): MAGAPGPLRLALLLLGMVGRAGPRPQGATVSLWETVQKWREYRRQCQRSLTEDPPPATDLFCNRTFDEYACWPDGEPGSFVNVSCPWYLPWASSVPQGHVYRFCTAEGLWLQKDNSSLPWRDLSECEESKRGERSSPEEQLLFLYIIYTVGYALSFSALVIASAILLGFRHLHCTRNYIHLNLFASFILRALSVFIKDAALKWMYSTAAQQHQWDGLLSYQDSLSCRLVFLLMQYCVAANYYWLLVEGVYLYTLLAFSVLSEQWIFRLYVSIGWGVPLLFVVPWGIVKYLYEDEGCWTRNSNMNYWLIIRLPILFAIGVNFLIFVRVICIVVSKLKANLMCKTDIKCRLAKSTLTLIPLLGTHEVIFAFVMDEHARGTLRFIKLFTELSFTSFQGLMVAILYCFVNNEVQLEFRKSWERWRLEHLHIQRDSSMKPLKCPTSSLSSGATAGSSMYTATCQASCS
SMILES,"activity change, negative = inhibition",Potency
Cc1cc(Cl)ccc1OCc1nnc(-c2ccccc2C)o1,inactive: 8.28%,–
O=C(Nc1cc(F)ccc1F)C1CCN(C(=O)c2cnn(-c3ccccc3)c2-n2cccc2)CC1,–,"inconclusive: 28.2 µM [inhibitor, single point]"
NS(=O)(=O)c1ccc(CCNC(=O)CN2CCN(Cc3cccc(C(F)(F)F)c3)CC2)cc1,–,"inconclusive: 1 µM [inhibitor, full curve]"
Cc1ccc(-c2noc(C3CCCN(C(=O)c4ccc(C(C)(C)C)cc4)C3)n2)o1 (stereo not given),–,"inconclusive: 11.2 µM [inhibitor, partial curve, poor fit]"
CSc1nc(NCc2ccccc2)c2c3c(sc2n1)CN(C)CC3,inactive: 0.763%,–
CN(C)C(CNC(=O)c1cccc(S(=O)(=O)N2CCc3ccccc3C2)c1)c1ccccc1 (stereo not given),inactive: -24.4%,–
COc1ccc2nc(SC(C)C(=O)NC3CCCCC3)[nH]c2c1 (stereo not given),–,"inconclusive: 31.6 µM [inhibitor, single point]"
Cc1ccc(NC(=O)CSc2nncn2C)c(C)c1,inactive: 7.85%,–
FC(F)(F)c1cccc(CN2CCC(c3cc(-c4cccs4)n[nH]3)CC2)c1,–,active: 6.31 µM
CCOc1ccccc1CNS(=O)(=O)c1ccc(-c2cnc(C3CC3)o2)cc1,–,"inconclusive: 794 nM [inhibitor, full curve, poor fit] and inconclusive: 1.26 µM [inhibitor, full curve, poor fit]"
COc1ccc(-n2c(C)nc3c(cnn3-c3ccc(C)cc3)c2=O)cc1,–,"inconclusive: 14.1 µM [inhibitor, single point]"
Cc1ccc(-n2nc(CO)c(C(=O)NCc3cccnc3)n2)cc1C,–,"inconclusive: 11.2 µM [inhibitor, partial curve, poor fit]"
O=C(C(Cc1ccc(Cl)cc1)NS(=O)(=O)c1ccccc1)N1CC[C@@]2(O)CCCC[C@H]2C1 (stereo not given in full),–,"inconclusive: 10 µM [inhibitor, partial curve, poor fit]"
COc1ccc(S(=O)(=O)c2cn(C)c3cc(N4CCCCCC4)c(F)cc3c2=O)cc1,inactive: 11.9%,–
COc1ccc(-c2noc(-c3nnn(-c4ccc(C)cc4C)c3C)n2)cc1,inactive: 13.6%,–
CCOC(=O)C=Cc1ccc(C(=O)OCC)[nH]1,–,"inconclusive: 2.24 µM [inhibitor, full curve, poor fit]"
COCCNC(=S)N/N=C(\C)CCc1ccc2c(c1)OCO2,–,"inconclusive: 14.1 µM [inhibitor, single point]"
COc1ccc(NC(=O)c2cccc3c(=O)c4c([nH]c23)CCCC4)cc1,inactive: 1.48%,–
CC(C)N(CCCNC(=O)c1ccc(CS(=O)(=O)c2c(Cl)cccc2Cl)o1)Cc1ccccc1,–,"inconclusive: 11.2 µM [inhibitor, partial curve, poor fit]"
O=C(O)CCC(=O)N1CCc2cc(S(=O)(=O)NCc3ccc(F)cc3)ccc21,inactive: 6.1%,–

SMILES,"activity change, negative = inhibition",Potency
O=C(NCCCN1CCOCC1)C1CCN(S(=O)(=O)c2cccc(Cl)c2Cl)CC1,–,"inconclusive: 20 µM [inhibitor, single point]"
Cc1ccc(C(C)C)c(OCC(=O)Nc2ccc3c(c2)nc(CCNC(=O)c2ccco2)n3C)c1,inactive: 4.14%,–
O=[N+]([O-])c1ccc(S(=O)(=O)N2CCN(C3CCN(Cc4ccccc4)CC3)CC2)cc1,–,"inconclusive: 7.94 µM [inhibitor, partial curve]"
CCOC(=O)C1CCN(C(=O)C2CCN(S(=O)(=O)c3c(C)noc3/C=C/c3ccc(C)cc3)CC2)CC1,–,"inconclusive: 22.4 µM [inhibitor, single point]"
CCCCN(C)S(=O)(=O)c1ccc(C(=O)Nc2sc3c(c2C(=O)OCC)CCN(C(C)C)C3)cc1,–,"inconclusive: 10 µM [inhibitor, single point]"
CCOC(=O)c1c(C)[nH]c(C(=O)OCc2csc(CC(=O)Nc3ccccc3C)n2)c1C,–,"inconclusive: 20 µM [inhibitor, single point]"
COc1cc(OC)cc(C(=O)Nc2ccc3c(c2)CCCN3C(=O)c2cccs2)c1,–,"inconclusive: 3.16 µM [inhibitor, full curve, poor fit] and inconclusive: 1.26 µM [inhibitor, full curve, poor fit]"
Cc1ccc(C(=O)Nc2nccs2)s1,inactive: 37.3%,–
CCOC(=O)c1[nH]c(C)c(CCC(=O)N2CCN(c3ccc(OC)cc3)CC2)c1C,inactive: 4.57%,–
O=C(C1CC=CCC1)N1CCC(CO)(Cc2ccc(Cl)cc2)CC1 (stereo not given),–,"inconclusive: 11.2 µM [inhibitor, single point]"
Cc1ccccc1C(=O)Nc1ccc2c(c1)OCCO2,–,"inconclusive: 3.98 µM [inhibitor, partial curve, poor fit]"
CNS(=O)(=O)c1cccc(C(=O)OCC(=O)NCc2ccccc2)c1,–,"inconclusive: 4.47 µM [inhibitor, full curve]"
Cc1ccccc1NC(=O)C12CC3CCC1(C)C3(C)CO2 (stereo not given),–,"inconclusive: 28.2 µM [inhibitor, single point]"
CCC(C)(C)NC(=O)CCCSc1nc2ccccc2[nH]1,–,"inconclusive: 2 µM [inhibitor, partial curve, poor fit]"
CC(=O)Nc1cccc(-c2ccnc3c2CC(C(=O)NCc2ccc(N(C)C)cc2)O3)c1 (stereo not given),–,"inconclusive: 28.2 µM [inhibitor, single point]"
COC(C(=O)Nc1ccc(S(=O)(=O)Nc2ccc(F)cc2)cc1)c1ccccc1 (stereo not given),–,"inconclusive: 22.4 µM [inhibitor, partial curve, poor fit]"
CN1CCN(NC(=O)c2ccc(COc3ccccc3Br)o2)CC1,–,"inconclusive: 8.91 µM [inhibitor, partial curve, poor fit]"
CCOCCCN1C(=O)CN(C2CCCCCC2)C(=O)C1c1ccc(OCC)c(OC)c1 (stereo not given),inactive: 28.1%,–
COc1ccc(N2CCN(C(c3ccccc3OC)c3nnnn3C3CCCC3)CC2)cc1 (stereo not given),–,"inconclusive: 28.2 µM [inhibitor, single point]"
CCCCC(=O)Nc1ccc(NC(=S)NC(=O)CCCCl)cc1OC,–,"inconclusive: 3.55 µM [inhibitor, single point]"
